Test [1] has as its target cell surface-associated GPC3 on human cancer cell lines (human, UniProt P51654 25-560). Briefly: cell-based or functional assay.
Test [2] deals with T1, recombinant human CD3 (human).
T1 chain: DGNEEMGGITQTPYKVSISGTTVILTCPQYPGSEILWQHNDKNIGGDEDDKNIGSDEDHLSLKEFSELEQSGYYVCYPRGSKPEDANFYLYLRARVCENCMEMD
In words: ELISA as in Example 4, human CD3 coated. As for the experimental part: (§1) ELISA was performed according to standard protocols, to determine binding affinity of anti-GPC3 1A1 mAb to recombinant GPC3 from human, cynomolgus, and mouse and anti-GPC3 6A4 mAb to recombinant human GPC3. Briefly, recombinant GPC3 (AcroBiosystems) was coated on Corning EIA/RIA high-binding 96-well plates (Corning Inc.) at 50 ng per well overnight at 4° C. and blocked with 3% nonfat milk in PBS (pH7.4). Fivefold serially diluted biotinylated antibodies were added and incubated at room temperature for 2 h. The plates were washed with PBS containing 0.05% Tween 20. Bound antibodies were detected by HRP-conjugated streptavidin (Sino Biological). The assay was developed at room temperature with TMB substrate (Solarbio) and monitored at 450 nm with a microplate reader. The half-maximal binding (EC₅₀) was calculated by fitting the data to the Langmuir adsorption isotherm.
(§2) To determine binding affinity of the bispecific antibodies 1A1-based GPC3×CD3 HBiTE and 6A4-based GPC3×CD3 HBiTE to both GPC3 and CD3, ELISA was performed as described in Example 4, with the coating proteins of human, cynomolgus or mouse GPC3, or human CD3.

Test [3] concerns the target T2, recombinant mouse GPC3 (mouse, UniProt Q8CFZ4 25-558, limits assumed).
T2 construct: Bought protein; also called mouse GPC3 protein
T2 sequence (Q8CFZ4 25-558 limits assumed): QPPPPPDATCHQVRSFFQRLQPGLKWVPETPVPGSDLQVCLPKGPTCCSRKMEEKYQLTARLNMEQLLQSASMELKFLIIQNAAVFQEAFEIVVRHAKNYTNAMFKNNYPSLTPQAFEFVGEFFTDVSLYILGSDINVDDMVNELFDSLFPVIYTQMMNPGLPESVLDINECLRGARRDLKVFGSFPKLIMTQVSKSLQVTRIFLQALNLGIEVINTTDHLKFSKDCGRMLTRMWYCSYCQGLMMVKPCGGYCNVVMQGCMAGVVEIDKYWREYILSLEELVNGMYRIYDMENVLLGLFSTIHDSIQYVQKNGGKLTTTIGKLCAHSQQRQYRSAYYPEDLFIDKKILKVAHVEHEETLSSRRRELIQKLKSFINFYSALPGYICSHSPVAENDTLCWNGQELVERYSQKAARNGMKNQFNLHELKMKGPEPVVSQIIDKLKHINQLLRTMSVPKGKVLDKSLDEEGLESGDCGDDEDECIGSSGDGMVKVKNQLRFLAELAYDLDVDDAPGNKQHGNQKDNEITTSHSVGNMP
Briefly: ELISA as in Example 4, GPC3 coated. As for the experimental part:
as §1, §2
On the technique in general: In an ELISA, binding on a coated surface is turned into a signal by an enzyme label.

In test [4] the target is T3, recombinant human GPC3 (full-length extracellular domain) (human, UniProt P51654 25-559).
T3 construct: extracellular domain; Bought protein coated on ELISA plates; also called human GPC3 protein
Briefly: ELISA as in Example 4, GPC3 coated. As for the experimental part: as §1, §2

For test [5], the target named is T4, recombinant cynomolgus GPC3 (cynomolgus, UniProt A0A2K5VK50 24-558).
T4 construct: Bought protein; also called cynomolgus GPC3 protein
Briefly: ELISA as in Example 4, GPC3 coated. As for the experimental part:
as §1, §2

B1: 1A1-based GPC3×CD3 HBiTE (bispecific antibody)
light: EIVLTQSPLSLPVTLGQPASISCRSSQSLVYSDGNTYLNWFHQRPGQSPRRLIYKVSNRDSGVPERFSGSGSGTDFTLKISRVEAEDVGVYYCMQSTHWPLTFGGGTKVEIKGGGGSGGGGSGGGGSEIVVTQSPATLSVSPGERATLSCRSSTGAVTTSNYANWVQQKPGQAPRGLIGGANKRAPGVPARFSGSLSGDEATLTISSLQSEDFAVYYCALWYSNLWVFGQGTKLEIKRTVAAPSVFIFPPSDEQLKSGTASVVCLLNNFYPREAKVQWKVDNALQSGNSQESVTEQDSKDSTYSLSSTLTLSKADYEKHKVYACEVTHQGLSSPVTKSFNRGE[human IgG1 Fc with T366L Y407H (EU numbers) not written out]
heavy: EVQLVQSGAEVKKPGASVKVSCKASGYTFTSYGISWVRQAPGQGLEWMGWISAYNGNTNYAQKLQGRVTMTTDTSTSTAYMELRSLRSDDTAVYYCARAGTPTQILRYFDWLSQPFDYWGQGTLVTVSSGGGSSGGGGSGGGGSEVQLVESGGGLVQPGGSLRLSCAASGFTFNTYAMNWVRQAPGKGLEWVARIRSKYNNYATYYADSVKGRFTISRDDSKNTLYLQMNSLRAEDTAVYYCARHGNFGSSYVSYFAYWGQGTTVTVSSASTKGPSVFPLAPSSKSTSGGTAALGCLVKDYFPEPVTVSWNSGALTSGVHTFPAVLQSSGLYSLSSVVTVPSSSLGTQTYICNVNHKPSNTKVDKKVEPKS[human IgG1 Fc with T366L Y407H (EU numbers) not written out]
notes: Heterodimer of one light and one heavy chain; Light: anti-GPC3 VL, linker, anti-CD3 (hSP34) VL-CL, monomeric Fc mFc7.2 (T366L, Y407H); Heavy: anti-GPC3 VH, linker, anti-CD3 VH-CH1, mFc7.2; also called 1A1 HBiTE
Consider B1, for which the “EC50 of HepG2 killing (cell electrical impedance, PBMC effector cells, target:effector 1:5)” value in test [1] was found to be 1.76 ng/mL. Also, the “EC50 of HuH7 killing (cell electrical impedance, PBMC effector cells, target:effector 1:5)” value in test [1] stood at 0.491 ng/mL. Besides, the “EC50 of LS174T-GPC3 killing (CCK-8 assay, PBMC effector cells, target:effector 1:5)” value in test [1] amounted to 1.25 ng/mL. Also, the “EC50 of RPMI8226 killing (LDH and CCK8 assays, PBMC effector cells, target:effector 1:5)” value in test [1] was 0.589 ng/mL. Besides, the EC50 (in general, the concentration giving half of the maximal effect) came out at 10.8 nM in test [2], 69.8 nM in test [3], 48.6 nM in test [4] and 41.2 nM in test [5].

The record behind these values is patent publication US20240368303A1 (ZHEJIANG SHIMAI PHARMACEUTICAL, published 2024).
